Data: PMC12136788
The list shows a part of the results.

B1: chr19:55172049:55172050:-_ENSMUSG00000024978_ENSMUST00000061856|mus_mus|motif|central (ssRNA)
RNA: GGGAGUUCUACAGUCCGACGAUCGGUGUGUUUACAUCGGCCAAGGCUGUAUUCCGAUGAACUGGGCAGAUAAGAAACGUCGGUUGUGCCAACUGUCACUGAAGACUCCUCCAUGGCAGAACGUGCAAGUCCCAAACCAUGUGCCAACAGAGGAUUGAGCAUCA
B2: 80042564_80042684_1340_CDS_ENSMUSG00000042428_ENSMUST00000044970|mouse|control|control (ssRNA)
RNA: GGGAGUUCUACAGUCCGACGAUCGAAGCACCAGGAGCAAUGCCAGCCCGCGAAGUGCAGGGGGCUGCCGAGAGACCACUGCACUAGGAUGUGGCCGGUGCGGUUCUCAUACUGCCGGAAGUUGGGCAUGGUGUAGUACUGGCGCAACAGAGGAUUGAGCAUCA
B3: chr8:9988343:9988344:+_ENSMUSG00000040396_ENSMUST00000048216|mus_hu|FALSE|FALSE (ssRNA)
RNA: GGGAGUUCUACAGUCCGACGAUCAGUUUUUGCCAUUUCUUCAGGAGAAUGGCUCUUUACGACUUCUUUGAUGAACUGUUCAAGUGCAGUGAAAUAGCCUUGGCACUGCCAUGUGUCAUUGUGAGUCCCAUCUGGAAAAAUGGCCAACAGAGGAUUGAGCAUCA
B4: 74476496_74476616_631_3pUTR_ENSMUSG00000021577_ENSMUST00000022062|mouse|control|control (ssRNA)
RNA: GGGAGUUCUACAGUCCGACGAUCUUCCAUACAACGUGUGUAAGAGUGAGUGGCCUGUCCGAUCAGCCACACAGCAACACCGAUGAGCCUGCCCGCCUUUCCCAAACUUGAGGCUCUGUCCACCAAAUGCACGCUGAUAAAUCUCAACAGAGGAUUGAGCAUCA
B5: 94664804_94666374_605_3pUTR_ENSMUSG00000038902_ENSMUST00000107270|mouse|control|control (ssRNA)
RNA: GGGAGUUCUACAGUCCGACGAUCGUACAGGCCGAACAUUCCUUACAGGAAAUCCCUGGGUAGUGAUGAAGAUAGGUUGUGAGGCCACAGGGGAGCUAGUCACAUGAUUGGCAUUCUGCAUGACCUGGACAGGUCUCAAUACUGCAACAGAGGAUUGAGCAUCA
B6: chr11:4040516:4040517:+_ENSMUSG00000003581_ENSMUST00000003677|mus_hu|motif|central (ssRNA)
RNA: GGGAGUUCUACAGUCCGACGAUCCUGAGGACCGGGGUGCAGGCAGGAAGGGUCCAUCCCCAUGUGCAGAGUCCAGCUGGGCAGCGGAUCAUCGGAGUAGCGGUUCCCCAGGACGUUGAAUUUGCACAGUGGGCAGGUCUGCUGCAACAGAGGAUUGAGCAUCA
B7: 193332704_193332824_519_CDS_ENSG00000198836_ENST00000392438|human|control|control (ssRNA)
RNA: GGGAGUUCUACAGUCCGACGAUCGGCUGUGUAGCCACCCCCAACAGCCGAUCCUAGUAUGAGAUAGCGAAGUUUUAAGAGUCUCGUAGCUAAUCUUGCUGGCCAAAAAUUCCUGCGAGGCUGGUAGCCAUAUUUAAUUGGAGACAACAGAGGAUUGAGCAUCA
B8: chr11:97639285:97639286:-_ENSMUSG00000071415_ENSMUST00000103146|mus_hu|FALSE|FALSE (ssRNA)
RNA: GGGAGUUCUACAGUCCGACGAUCAGCAAUUGGAAGAUGCUGAAAGUCUGCAAACUCACAAAAAAGCAAGGAUUGCUUUAAAAAAAAAAUGCCCAGAGUUUCCAUUUCAGAAAAGUGAUGGUCAGGGUAUGUCAAAAACACUGUCAACAGAGGAUUGAGCAUCA
B9: chr1:163117127:163117128:-_ENSG00000143248_ENST00000313961|hu_mus|hu_hu_hu_mus_False|18_58 (ssRNA)
RNA: GGGAGUUCUACAGUCCGACGAUCUGCUACAAAGGAUGUAACUCAACUCACAGGGCAACUUUUGGAAGCCUGACCAGAUUACUACUUGAUUAGCUCCUUAUAAAAUUCAGAGCGCACAAAGCGAGGCAGAGAAUCCUUCUCCAUCAACAGAGGAUUGAGCAUCA
B10: chr6:40197388:40197389:+_ENSMUSG00000057716_ENSMUST00000061740|mus_mus|mus_mus_mus_hu_False|58_78 (ssRNA)
RNA: GGGAGUUCUACAGUCCGACGAUCGAGACACUGGGGUGGAUUUAUUCCACCUCUGUUUGCUAGCCUCCCACUAAGACAGCUAUUUUGGGAUUCAUGGCCUUGAAUAUCAAGAGGGAAAGGAAGAGGAUGGAAAGAGUCAAGAGUCAACAGAGGAUUGAGCAUCA
B11: chr7:65705475:65705476:+_ENSG00000169902_ENST00000304842|hu_hu|FALSE|FALSE (ssRNA)
RNA: GGGAGUUCUACAGUCCGACGAUCUCUAUCCGGUGAUGGCAUUCCAUGGCAUGCUGGCCCAGGUAAAACACAGUCACAGAACUAAUCACCAGACAUGCCAAUAGUAAGUUCUGCUUCAGCUUUCCAACCAUCUUGAUGUGGUUACAACAGAGGAUUGAGCAUCA
B12: chr7:141438946:141438947:+_ENSG00000106028_ENST00000265304|hu_mus|hu_hu_hu_mus_True|1_58 (ssRNA)
RNA: GGGAGUUCUACAGUCCGACGAUCGACGAAAUACCUGUAACACAGGUCUUCGAAACAUGGCUUCUGUUUUUCUUACAGUCUAAUCUUUAGGCUUUUCCUAAAGGAAAGAAAGAAAAGAGAAAAAUGAUAAAUCAAGAACUUCCGCAACAGAGGAUUGAGCAUCA
B13: chr1:39494564:39494565:+_ENSG00000168653_ENST00000372967|hu_hu|hu_hu_hu_mus_True|28_88 (ssRNA)
RNA: GGGAGUUCUACAGUCCGACGAUCAUGCAUUCGCCUCAUCGUUUUGUGCCGAAGCAAGCACUCUUCGAAGUCAUCGAACUCUAUCUUGCACUCCUUUUUCGCCCGGGUAUAACCGAUCCCGUGUGCACACUCUAUCCACUCUUUCAACAGAGGAUUGAGCAUCA
B14: 76112177_76112297_1045_CDS_ENSG00000091073_ENST00000430490|human|control|control (ssRNA)
RNA: GGGAGUUCUACAGUCCGACGAUCGUACGGUGCAAAGGCCUGGUGGGUCCCAAACACAGAAGCGGUCCUGUGUGGGGGGUGCUGGGGGACGGGGUAUGCAGGGAGGUUGGUCAUGGAGUGGCGGUAGCGGCCUGACACGGGGCCCAACAGAGGAUUGAGCAUCA
B15: chr5:130458811:130458812:+_ENSMUSG00000066735_ENSMUST00000051758|mus_mus|FALSE|FALSE (ssRNA)
RNA: GGGAGUUCUACAGUCCGACGAUCUACUUUCUUCACUAUGUAUCAGUCACGAUGAGCUGACAAUUCCUUUCUACACUUCAACUAAACUGUACAGUAAGUUCUGCAGGGGUGGAUCCCAAUGUUUCUACCUUUAUUUACAAAUAUCAACAGAGGAUUGAGCAUCA
B16: chr16:32019706:32019707:-_ENSMUSG00000022781_ENSMUST00000023467|mus_hu|FALSE|FALSE (ssRNA)
RNA: GGGAGUUCUACAGUCCGACGAUCCUUCAGGUCAAGUUCUGAACUAAAAUAUUACAUGUAACAACAGCUGGUCCUAACUUUUAUACAAAGUGAAACUAUAUAGAGCUCCUUUGCCAACAUAAGGAGCUACAUAAUUUCUAUUACCAACAGAGGAUUGAGCAUCA
B17: chr11:18503389:18503390:-_ENSG00000074319_ENST00000251968|hu_mus|FALSE|FALSE (ssRNA)
RNA: GGGAGUUCUACAGUCCGACGAUCAUUUUCCAUUUUCUCCAGAGCAGAACUUAGUUCUUCAUCCUUCUUUUUCAAAAGUUCUAUGUUUUUAUCAACUUCAGCUACUUCUUGAUCUAAGCGGGUGACCAUCUCUUCCAGUUUCUGCAACAGAGGAUUGAGCAUCA
B18: 111852333_111852587_630_CDS_ENSMUSG00000018707_ENSMUST00000018851|mouse|control|control (ssRNA)
RNA: GGGAGUUCUACAGUCCGACGAUCUGAAGGAGCCAUCUUAUCACCAUCCCUGUCUGCUUUGCCAGACUCUCUGAUGUAGGACUUAAAGAAAGGAGCCACUGCAUUGCUGAUGAAAGAGUGCAGUGUCUCAUACGGCGAGUCUUCCAACAGAGGAUUGAGCAUCA
B19: chr3:148802587:148802588:-_ENSG00000071794_ENST00000310053|hu_mus|hu_hu_hu_mus_False|8_28 (ssRNA)
RNA: GGGAGUUCUACAGUCCGACGAUCUCCAACAACUUGUCCUCUCAUAGUUCCAAAUAAAACCAAAUCUUGCUCUUCAUCACUCGUUAGGAAGUCAUCUGGAGGAAUAACAUCUUGGAAUUCAAAAUGUGGAAAGAAAGUUGAGUACAACAGAGGAUUGAGCAUCA
B20: 121248624_121341702_532_3pUTR_ENSG00000157837_ENST00000353487|human|control|control (ssRNA)
RNA: GGGAGUUCUACAGUCCGACGAUCAGACUAUAAGAAGAAUGGAAAUCAGAAAUGUAGACACUUGACUGGAAUCCACCAGGGAAUAGGCCCACGAGUAGGUCUGCUCCGCCAUGGCGCUGCCUCUCGUGGGCUCCGCUGCAGGCUCAACAGAGGAUUGAGCAUCA
B21: chr3:108421708:108421709:+_ENSMUSG00000040389_ENSMUST00000051145|mus_mus|motif|central (ssRNA)
RNA: GGGAGUUCUACAGUCCGACGAUCGCCAAGAAGGACUUCACUUUCUGUAAUUUCUUCACCAGUUGCUUUACUCUGACAAAAUUCGGCGCAGCAUUCAUAAAGUAGGCCCUUCAUUACGAGCUGGAAUAAGCGAUUGUUACUUGCCAACAGAGGAUUGAGCAUCA
B22: chr16:57198444:57198445:-_ENSMUSG00000022749_ENSMUST00000023431|mus_hu|motif|central (ssRNA)
RNA: GGGAGUUCUACAGUCCGACGAUCCCUAAAAGAAGCCGGUGUUUUGCUGCAAUAAUACUGAGCCAGAGAGAAAAGGUCUUCGGUAUCUUCUAUAUUCAGACUGGAUGGAGUAUUUUCCAAGAACUUGAUAACUUCUUCUUUGCUCAACAGAGGAUUGAGCAUCA

The binders below were run against T1, UNK ZnF1-3 (human, UniProt Q9C0B0 31-174) (assay: nsRBNS (natural sequence RNA bind-n-seq); RBNS binding buffer (assumed for nsRBNS): 25 mM Tris pH 7.5, 150 mM KCl, 3 mM MgCl2, 0.01% Triton X-100, 500 ug/ml BSA, 20 U/ml SUPERase-In, 4 C; UNK is unkempt and MSI1 is Musashi-1; names of the RNAs are library labels; protein concentration not given here; high values mean tight binding).
T1 sequence: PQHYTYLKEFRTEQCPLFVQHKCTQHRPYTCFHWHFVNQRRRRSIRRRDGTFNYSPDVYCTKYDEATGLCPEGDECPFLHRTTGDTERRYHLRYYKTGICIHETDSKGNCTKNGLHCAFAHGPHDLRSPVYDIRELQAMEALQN

Row | Binder | binding signal
1 | B1 | 1.02 enrichment R
2 | B2 | 0.712 enrichment R
3 | B3 | 0.599 enrichment R
4 | B4 | 0.772 enrichment R
5 | B5 | 1 enrichment R
6 | B6 | 1.25 enrichment R
7 | B7 | 0.977 enrichment R
8 | B8 | 1.51 enrichment R
9 | B9 | 1.11 enrichment R
10 | B10 | 1.54 enrichment R
11 | B11 | 0.347 enrichment R
12 | B12 | 0.696 enrichment R
13 | B13 | 0.701 enrichment R
14 | B14 | 1.52 enrichment R
15 | B15 | 0.941 enrichment R
16 | B16 | 0.871 enrichment R
17 | B17 | 0.439 enrichment R
18 | B18 | 0.59 enrichment R
19 | B19 | 1.55 enrichment R
20 | B20 | 1.19 enrichment R
21 | B21 | 0.858 enrichment R
22 | B22 | 1.18 enrichment R
